# Measurements reported in the supplement of paper PMC8728848.
# This is one part of the list.
# Legend:
# Experiment in all cases: glycan array binding signal (z-score within array); higher = stronger binding
# Conditions in all cases: glycan notation: IUPAC condensed, linker removed
# Gal6S(b1-4)GlcNAc = target: Gal6S(b1-4)GlcNAc
# Method in brief: (§1)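 Glycan array data came from 3228 arrays in the Consortium for Functional Glycomics database, and only arrays with an available protein sequence were kept. Glycan names were put into IUPAC-condensed notation, and columns mapping to the same glycan were averaged. The binding signal is a within-array Z-score, averaged across arrays of one protein sequence run at different concentrations or buffers and across linkers. A negative Z-score can be read as non-binding.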
# GalNAc(a1-3)Gal = target: GalNAc(a1-3)Gal
# Method in brief: as §1
# GalNAc(a1-3)GalNAc = target: GalNAc(a1-3)GalNAc
# Method in brief: as §1
# [1] = target: GalNAc(b1-3)Gal(a1-4)Gal(b1-4)GlcNAc
# Method in brief: as §1
# GalNAc(b1-3)GalNAc = target: GalNAc(b1-3)GalNAc
# Method in brief: as §1
# GalNAc(b1-4)GlcNAc = target: GalNAc(b1-4)GlcNAc
# Method in brief: as §1
# Glc(a1-4)Glc = target: Glc(a1-4)Glc
# Method in brief: as §1
# Glc(a1-6)Glc(a1-6)Glc = target: Glc(a1-6)Glc(a1-6)Glc
# Method in brief: as §1
# Glc(b1-4)Glc = target: Glc(b1-4)Glc
# Method in brief: as §1
# Glc(b1-6)Glc = target: Glc(b1-6)Glc
# Method in brief: as §1
# GlcA(b1-3)Gal = target: GlcA(b1-3)Gal
# Method in brief: as §1
# GlcA(b1-6)Gal = target: GlcA(b1-6)Gal
# Method in brief: as §1
# [2] = target: GlcNAc(a1-3)Gal(b1-4)GlcNAc
# Method in brief: as §1
# [3] = target: GlcNAc(a1-6)Gal(b1-4)GlcNAc
# Method in brief: as §1
# [4] = target: GlcNAc(b1-2)Gal(b1-3)GalNAc
# Method in brief: as §1
# [5] = target: GlcNAc(b1-2)Man(a1-3)[GlcNAc(b1-2)Man(a1-6)]Man(b1-4)GlcNAc(b1-4)GlcNAc
# Method in brief: as §1
# GlcNAc(b1-3)Gal = target: GlcNAc(b1-3)Gal
# Method in brief: as §1
# [6] = target: GlcNAc(b1-3)Gal(b1-3)GalNAc
# Method in brief: as §1
# GlcNAc(b1-3)Gal(b1-4)Glc = target: GlcNAc(b1-3)Gal(b1-4)Glc
# Method in brief: as §1
# [7] = target: GlcNAc(b1-3)Gal(b1-4)GlcNAc
# Method in brief: as §1
# [8] = target: GlcNAc(b1-3)Gal(b1-4)GlcNAc(b1-3)Gal(b1-4)GlcNAc
# Method in brief: as §1
# GlcNAc(b1-3)GalNAc = target: GlcNAc(b1-3)GalNAc
# Method in brief: as §1
# [9] = target: GlcNAc(b1-3)[GlcNAc(b1-6)]Gal(b1-4)GlcNAc
# Method in brief: as §1
# [10] = target: GlcNAc(b1-3)[GlcNAc(b1-6)]GalNAc
# Method in brief: as §1
# [11] = target: GlcNAc(b1-3)[GlcNAc(b1-6)]GlcNAc(b1-4)GlcNAc
# Method in brief: as §1
# [12] = target: GlcNAc(b1-4)Gal(b1-4)GlcNAc
# Method in brief: as §1
# [13] = target: GlcNAc(b1-4)GlcNAc(b1-4)GlcNAc
# Method in brief: as §1
# [14] = target: GlcNAc(b1-4)GlcNAc(b1-4)GlcNAc(b1-4)GlcNAc(b1-4)GlcNAc
# Method in brief: as §1
# [15] = target: GlcNAc(b1-4)GlcNAc(b1-4)GlcNAc(b1-4)GlcNAc(b1-4)GlcNAc(b1-4)GlcNAc
# Method in brief: as §1
# [16] = target: GlcNAc(b1-4)[GlcNAc(b1-6)]GalNAc
# Method in brief: as §1
# [17] = target: GlcNAc(b1-6)Gal(b1-4)GlcNAc
# Method in brief: as §1
# GlcNAc(b1-6)GalNAc = target: GlcNAc(b1-6)GalNAc
# Method in brief: as §1
# Kdn(a2-3)Gal(b1-3)GlcNAc = target: Kdn(a2-3)Gal(b1-3)GlcNAc
# Method in brief: as §1
# Kdn(a2-3)Gal(b1-4)GlcNAc = target: Kdn(a2-3)Gal(b1-4)GlcNAc
# Method in brief: as §1
binder,measurement,setting,value
"CLEC-6 (Homo sapiens), Q8WXI8 (protein) MGLEKPQSKLEGGMHPQLIPSVIAVVFILLLSVCFIASCLVTHHNFSRCKRGTGVHKLEHHAKLKCIKEKSELKSAEGSTWNCCPIDWRAFQSNCYFPLTDNKTWAESERNCSGMGAHLMTISTEAEQNFIIQFLDRRLSYFLGLRDENAKGQWRWVDQTPFNPRRVFWHKNEPDNSQGENCVVLVYNQDKWAWNDVPCNFEASRICKIPGTTLN",glycan array binding signal (z-score),Gal6S(b1-4)GlcNAc,-0.239
same,glycan array binding signal (z-score),GalNAc(a1-3)Gal,-0.293
same,glycan array binding signal (z-score),GalNAc(a1-3)GalNAc,-0.293
same,glycan array binding signal (z-score),[1],-0.16
same,glycan array binding signal (z-score),GalNAc(b1-3)GalNAc,-0.124
same,glycan array binding signal (z-score),GalNAc(b1-4)GlcNAc,-0.155
same,glycan array binding signal (z-score),Glc(a1-4)Glc,-0.285
same,glycan array binding signal (z-score),Glc(a1-6)Glc(a1-6)Glc,-0.527
same,glycan array binding signal (z-score),Glc(b1-4)Glc,-0.151
same,glycan array binding signal (z-score),Glc(b1-6)Glc,-0.063
same,glycan array binding signal (z-score),GlcA(b1-3)Gal,-0.155
same,glycan array binding signal (z-score),GlcA(b1-6)Gal,-0.153
same,glycan array binding signal (z-score),[2],-0.194
same,glycan array binding signal (z-score),[3],-0.328
same,glycan array binding signal (z-score),[4],0.12
same,glycan array binding signal (z-score),[5],-0.084
same,glycan array binding signal (z-score),GlcNAc(b1-3)Gal,-0.179
same,glycan array binding signal (z-score),[6],-0.16
same,glycan array binding signal (z-score),GlcNAc(b1-3)Gal(b1-4)Glc,-0.07
same,glycan array binding signal (z-score),[7],-0.077
same,glycan array binding signal (z-score),[8],-0.335
same,glycan array binding signal (z-score),GlcNAc(b1-3)GalNAc,-0.247
same,glycan array binding signal (z-score),[9],-0.336
same,glycan array binding signal (z-score),[10],-0.276
same,glycan array binding signal (z-score),[11],0.153
same,glycan array binding signal (z-score),[12],-0.125
same,glycan array binding signal (z-score),[13],-0.369
same,glycan array binding signal (z-score),[14],-0.21
same,glycan array binding signal (z-score),[15],-0.062
same,glycan array binding signal (z-score),[16],-0.138
same,glycan array binding signal (z-score),[17],-0.234
same,glycan array binding signal (z-score),GlcNAc(b1-6)GalNAc,-0.106
same,glycan array binding signal (z-score),Kdn(a2-3)Gal(b1-3)GlcNAc,-0.178
same,glycan array binding signal (z-score),Kdn(a2-3)Gal(b1-4)GlcNAc,-0.159
